Experimental data published in US9796662B2 (priority 2010, dated 2017).

Conditions: 342 ppm water; for sol (solubility), Adjuvant: test sample as adjuvant (anionic/nonionic blend replacement)
Procedure: Surfactant candidates for water soluble herbicide applications are examined as a replacement for the anionic, nonionic, or anionic/nonionic blend portion and compared to a known industry adjuvant standard for use in paraquat, a water soluble herbicide concentrate formulation. A standard dilution test is conducted whereby the concentrates are diluted in water to determine if solubility is complete.
A known industry paraquat adjuvant (2.8 g) is added and vigorously mixed for 30 s. Deionized water (8.07 g) is added, and mixing resumes for 30 s. Standard 342 ppm water (47.5 mL) is added to a 50-mL Nessler cylinder, which is stoppered and equilibrated in a 30° C. water bath. Once the test water equilibrates, the formulated paraquat (2.5 mL) is added by pipette into the cylinder. The cylinder is stoppered and inverted ten times. Solubility is recorded as complete or incomplete. Cylinders are allowed to stand and the amount (in mL) and type of separation are recorded after 30 min., 1 h, 2 h, and 24 h. Results of the solubility testing appear in Table 8 below.
Anionic test sample: Paraquat (4.57 g of 43.8% active material) is added to a 20-mL glass vial. An eight to ten mole alkyl phenol ethoxylate surfactant (0.7 g) is added and vigorously mixed for 30 s. Test sample (0.7 g) is added and mixing resumes for 30 s. Deionized water (4.03 g) is added, and mixing resumes for 30 s.
Nonionic test sample: Paraquat (4.57 g of 43.8% active material) is added to a 20-mL glass vial. Test sample (0.7 g) is added and vigorously mixed for 30 s. Sodium linear alkylbenzene sulfonate (“NaLAS,” 0.7 g) is added and mixing resumes for 30 s. Deionized water (4.03 g) is added, and mixing resumes for 30 s.
Adjuvant (anionic/nonionic) test sample: Paraquat (4.57 g of 43.8% active material) is added to a 20-mL glass vial. Test sample (1.4 g) is added and vigorously mixed for 30 s. Deionized water (4.03 g) is added, and mixing resumes for 30 s.

SMILES | sol (solubility), Adjuvant | sol (solubility), Nonionic (test sample replaces nonionic portion, with NaLAS)
C=CCCCCCCCC(=O)OCC[N+](C)(C)C [C10-7, C10 DMEA Ester Quat] | S | S
CC/C=C/CCCCCCCC(=O)OCC[N+](C)(C)C [C12-7, C12 DMEA Ester Quat] | S | 
C[N+](C)(C)CCOC(=O)CCCCCCC/C=C/CCCCCCCC(=O)OCC[N+](C)(C)C [Mix-16, C18 diMEA DiQuat] | S | 
